# Results taken from PMC4336329 (PLoS ONE, 2015).
# The whole screen tested about 310,000 compounds, of which about 14,000 (4.5%) showed an effect of 50% or more. Effects have a minus sign here. This is one part of the list.
# Target: human ether-à-go-go-related gene (hERG) potassium channel (human, UniProt Q12809)
# Experiment: primary screen, population patch clamp on CHO cells stably expressing hERG
# 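Note: peak tail current of the secondary pulse compared with the same well before compound.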
# Sequence of human ether-à-go-go-related gene (hERG) potassium channel (Q12809 whole entry, looked up): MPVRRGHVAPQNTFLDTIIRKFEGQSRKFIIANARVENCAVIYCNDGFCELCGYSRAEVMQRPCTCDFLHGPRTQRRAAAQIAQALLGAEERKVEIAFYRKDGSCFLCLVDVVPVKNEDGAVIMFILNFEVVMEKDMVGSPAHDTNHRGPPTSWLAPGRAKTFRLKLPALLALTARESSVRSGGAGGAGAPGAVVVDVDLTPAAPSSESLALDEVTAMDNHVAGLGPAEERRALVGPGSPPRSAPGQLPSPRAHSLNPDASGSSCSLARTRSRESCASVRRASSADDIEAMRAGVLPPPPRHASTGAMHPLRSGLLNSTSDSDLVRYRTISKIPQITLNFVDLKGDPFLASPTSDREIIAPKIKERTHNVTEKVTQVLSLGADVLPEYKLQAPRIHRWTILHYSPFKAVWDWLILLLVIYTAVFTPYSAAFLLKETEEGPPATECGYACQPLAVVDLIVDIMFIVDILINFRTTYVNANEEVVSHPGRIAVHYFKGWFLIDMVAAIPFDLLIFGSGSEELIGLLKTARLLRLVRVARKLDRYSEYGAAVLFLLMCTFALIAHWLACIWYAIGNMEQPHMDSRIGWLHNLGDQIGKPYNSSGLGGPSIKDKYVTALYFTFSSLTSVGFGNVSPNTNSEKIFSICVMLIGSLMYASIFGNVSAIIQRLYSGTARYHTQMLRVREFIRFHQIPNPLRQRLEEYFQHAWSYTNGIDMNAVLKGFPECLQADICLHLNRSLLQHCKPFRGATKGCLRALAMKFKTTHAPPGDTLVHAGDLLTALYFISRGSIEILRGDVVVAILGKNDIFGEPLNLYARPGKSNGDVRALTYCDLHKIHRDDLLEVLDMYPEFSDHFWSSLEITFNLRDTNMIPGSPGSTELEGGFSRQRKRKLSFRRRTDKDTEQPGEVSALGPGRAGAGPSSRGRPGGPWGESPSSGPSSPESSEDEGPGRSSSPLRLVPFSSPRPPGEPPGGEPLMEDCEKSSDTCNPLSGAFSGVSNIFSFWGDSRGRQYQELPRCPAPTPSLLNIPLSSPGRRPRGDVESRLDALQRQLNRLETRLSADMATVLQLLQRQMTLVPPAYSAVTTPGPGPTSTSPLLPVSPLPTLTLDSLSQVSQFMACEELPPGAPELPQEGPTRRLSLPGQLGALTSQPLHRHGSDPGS
row,Structure (SMILES),"hERG current change (%, negative = inhibition) at 10uM [%]"
1,COc1ccc(CCCC(=O)NC2CCCCC2)cc1,6.2
2,CCC(COC(C)=O)Nc1nc2c([nH]1)c(=O)n(C)c(=O)n2C (stereo not shown),-11.4
3,COCC(=O)Nc1ccc(F)cc1,18.6
4,CCCCn1cc(SCC(=O)O)c2ccccc21,11.7
5,COc1ccc(C(=O)Nc2nccs2)cc1,17.8
6,CC1CCc2ccccc2N1C(=N)N(C)C.Cl (stereo not shown),3.44
7,COc1ccccc1C1C2=C(N=c3s/c(=C/c4cccc(OCC(=O)O)c4)c(=O)n31)c1ccccc1CC2 (stereo not shown),28.7
8,O=C(Nc1ccccc1C(=O)Nc1ccc(F)cc1)c1ccco1,2.86
9,CCOP(=O)(OCC)/C(C#N)=C/c1cc(OC)ccc1OC,12.7
10,Cc1ccc2nc(-c3cccs3)oc(=O)c2c1,0.723
11,CCOC(=O)C1CCN(S(=O)(=O)c2ccc(C)c(C(=O)NC3CCCCC3)c2)CC1,-55.8
12,CC(C)c1nc2n[nH]c(N)c2c2c1CCC2,10.3
13,Cc1ccc(C(C)C)c(OCC(O)CN2CCc3ccccc3C2)c1.Cl (stereo not shown),-65
14,O=C(OCc1ccc([N+](=O)[O-])cc1)C1CC(=O)N(Cc2ccccc2Cl)C1 (stereo not shown),-66.4
15,Cc1cccc(-n2ncc3c2CCCC3NC(=O)CCN2Cc3ccccc3C2=O)c1C (stereo not shown),2.55
16,CCOC(=O)C1CCCN(C(=O)c2ccc(S(=O)(=O)N3CCOCC3)cc2)C1 (stereo not shown),12
17,O=C(Nc1cccc(Oc2ccc3c(c2)C(=O)NC3=O)c1)c1ccco1,-21.8
18,CCOc1ccc(CN(CCCl)CCCl)cc1C(=O)OC.Cl,7.69
19,CN(CC(=O)Nc1ccc(Cl)cc1)C(=O)c1ccc(-n2cncn2)c([N+](=O)[O-])c1,-70.3
20,COc1cccc(-c2ccc(NC(=O)C3CCCN(Cc4cnc(C)n4C)C3)cc2)c1 (stereo not shown),-74.3
21,CC(=O)Nc1nc2ccc(Br)cc2s1,-1.32
22,O=C(c1ccc(-n2cncn2)c([N+](=O)[O-])c1)N1CCN(S(=O)(=O)c2c(F)cccc2F)CC1,-56.8
23,COc1cccc2[nH]c3c(Cl)ncnc3c12,-4.93
24,O=C(NCc1nnnn1-c1ccc(F)c(F)c1)c1ccc(S(=O)(=O)N2CCOCC2)cc1,-9.56
25,O=C1S/C(=C\c2ccc(N3CCOCC3)o2)C(=O)N1c1ccccc1,13.3
